# Measured values: PubChem BioAssay AID651820 (National Center for Advancing Translational Sciences (NCATS), 2012)
# Among all 340,000 compounds or so, about 12,000 (3.5%) were called active. The inconclusive results got no clear call from the source; some entries with a clear call stand among them for comparison. Calls come from the whole dose curve; as a rule, active = well fitted inhibition curve with a large enough effect; inconclusive = small, poorly fitted or top-dose-only effect, or another doubt; inactive = no such curve, though single readings can be large or run the other way. Potencies of inconclusive entries are left out as doubtful fits.
# Test: qHTS Assay for Inhibitors of Hepatitis C Virus (HCV)
# Details: Huh7.5.1 HCVcc-Cre (HCVcc is cell-culture hepatitis C virus) infection, luciferase reporter, 44 h; series mostly up to 41.8 µM
# Procedure, shortened: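 Infectious HCV cell culture screen: compound-treated cells (1,000/well, pre-plated 4 h) are infected with HCVcc-Cre at roughly 0.5 moi and grown 44 h. Infection is quantified by luciferase signal after 15 min substrate incubation at room temperature.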
# Potency is the fitted concentration of half-maximal effect; tags give direction and shape of the fitted curve.
row,Structure (SMILES),Potency
1,CC(=O)Nc1ccc(C(=O)/C=C/c2ccco2)cc1,inactive
2,C=C(C)c1cccc(C(C)(C)NC(=O)Nc2cc(C)ccn2)c1,"inconclusive [inhibitor, single point]"
3,CCCCCCCCOC(=O)C[N+](C)(C)C/C=C(/C)Cl,inactive
4,Nc1n[nH]c(-c2ccccc2)n1,inactive
5,Clc1ccccc1N=C1NN=C(c2cccs2)CS1,"inconclusive [inhibitor, single point]"
6,COc1ccc(S(=O)(=O)NC(CC(=O)NCCc2ccc(OC)c(OC)c2)c2ccco2)cc1 (stereo unspecified),"inconclusive [inhibitor, full curve, poor fit]"
7,CN(C)Cc1c(O)ccc2oc(Cc3ccccc3)cc12,"inconclusive [inhibitor, single point]"
8,CCC(C)n1c(=S)[nH]c2c(sc3ccc([N+](=O)[O-])cc32)c1=O (stereo unspecified),"inconclusive [inhibitor, single point]"
9,Cc1ccc(-c2nnc(SCC(=O)NC3CC3)o2)cc1,inactive
10,COc1ccc(N2CCN(C(=O)CSc3nnc4c(C)cc5c(C)cc(C)cc5n34)CC2)cc1,"inconclusive [inhibitor, full curve]"
11,NCCNC(=O)c1c(O)c2cccc3c2n(c1=O)CCC3,inactive
12,Cc1cc(C)c(NC(=S)N(Cc2cccnc2)Cc2ccco2)c(C)c1,"inconclusive [inhibitor, single point]"
13,COc1cc(C(=O)OCc2csc(CC(=O)Nc3cc(C)ccc3C)n2)ccc1OC(F)F,"inconclusive [inhibitor, partial curve]"
14,N/C(Cn1cncn1)=N\OC(=O)c1ccc(Cl)cc1Cl,inactive
15,CC(=O)c1c(C)[nH]c(C(=O)Nc2cccc(S(=O)(=O)N3CCCC3)c2)c1C,"inconclusive [inhibitor, full curve, poor fit]"
16,CC(=O)c1c(C)[nH]c(C(=O)CSc2nc3ccc(C)cc3[nH]2)c1C,"inconclusive [inhibitor, single point]"
17,CC(=O)Nc1cccc(-c2csc(N)n2)c1,inactive
18,O=C(CC1OC(=O)c2ccccc21)Nc1cccc(S(=O)(=O)N2CCCCCC2)c1 (stereo unspecified),"inconclusive [inhibitor, partial curve]"
19,Clc1ccc2[nH]c3c(c2c1)CNCC3,"inconclusive [inhibitor, full curve]"
20,Cc1ccc(C(=O)N/C(=C/C=C/c2ccccc2)C(=O)NCc2ccco2)cc1,"inconclusive [inhibitor, single point]"
21,CCOc1cc(CNCCCN2CCOCC2)cc(Cl)c1OCC(=O)NC(C)(C)C,active: 11.2 µM
22,NC(=O)CNC(=O)[C@@H]1CC2(CC(c3cccc(Br)c3)=NO2)CN1C(=O)c1ccc(Br)cc1 (stereo partly specified),inactive
23,COc1ccc(-c2csc3nc(-c4ccccc4F)oc(=O)c23)cc1OC,"inconclusive [inhibitor, partial curve]"
24,Cc1cc(OC(C)C(=O)N2CCN(c3ccc(F)cc3)CC2)c2c(C)cc(=O)oc2c1 (stereo unspecified),inactive

row,Structure (SMILES),Potency
1,COc1ccc(-n2c(NN)nc3sc4c(c3c2=O)CCCC4)cc1,"inconclusive [inhibitor, single point]"
2,Cc1ccc(NC(=O)c2c(C(F)(F)F)nn(C)c2SCc2cccc(C(F)(F)F)c2)cc1C,"inconclusive [inhibitor, single point]"
3,Cn1nc(C(C)(C)C)c([N+](=O)[O-])c1C(=O)Nc1ccc(Br)cc1,active: 12.6 µM
4,O=C(Nc1cc(C(F)(F)F)cc(C(F)(F)F)c1)c1ccc(Cn2cc(C(F)(F)F)ccc2=O)cc1,"inconclusive [inhibitor, single point]"
5,CCOC(=O)c1c(NC(=O)c2c(-c3ccccc3)noc2C)sc(C)c1-c1ccccc1,active: 7.08 µM
6,Cc1cccc(C)c1NC(=O)c1ccc(-c2ccc(Cl)cc2Cl)o1,"inconclusive [inhibitor, single point]"
7,CCCCOc1ccc(C(=O)NCC(=O)N2CCN(Cc3ccc4c(c3)OCO4)CC2)cc1,"inconclusive [inhibitor, partial curve]"
8,O=C(Nc1ccc(Cl)cc1)Nc1cnccn1,inactive
9,Cc1cccc(NC(=O)CSc2nccn2Cc2ccco2)c1C,inactive
10,CCOc1ccc2c(c1)cc(CN(C(=O)CC)C1CCCCC1)c1nnnn12,"inconclusive [inhibitor, partial curve]"
11,O=C(CSc1nnc(CNC(=O)c2c(F)cccc2Cl)o1)Nc1ccccc1,inactive
12,O=C1CSC(=S)N1,inactive
13,Cc1nc(NC(=O)CSc2nnnn2C)sc1C,inactive
14,Nc1c(-c2cccc(Cl)c2)cnn1-c1cccc(C(F)(F)F)c1,"inconclusive [inhibitor, single point]"
15,CCC(C)Sc1cc(C(F)(F)F)c(C(=O)Nc2ccc(Cl)cc2)cn1 (stereo unspecified),active: 22.4 µM
16,COc1cc(OC)c(OC)cc1CN1CCN(Cc2ccc(C(F)(F)F)cc2)CC1,active: 11.2 µM
17,O=C(Oc1ccc(-c2cnc3ccccc3n2)cc1)c1ccco1,"inconclusive [inhibitor, single point]"
18,Clc1ccc2[nH]cc(-c3nnnn3-c3ccccc3)c2c1,"inconclusive [inhibitor, partial curve]"
19,CCc1c(C)nc(N2CCN(c3ccc(OC)cc3)CC2)[nH]c1=O,inactive
20,COc1cc(C2c3cc4c(cc3C(O)C3COCC23)OCO4)cc(OC)c1OC (stereo unspecified),"inconclusive [inhibitor, single point]"
21,O=C(C1CCCN(c2ncnc3c2nc2n3CCCCC2)C1)N1CCN(c2ccc(Cl)cc2)CC1 (stereo unspecified),"inconclusive [inhibitor, partial curve]"
22,O=C(CC1SC(=Nc2ccccc2)N(Cc2ccccn2)C1=O)Nc1cccc(Cl)c1 (stereo unspecified),"inconclusive [inhibitor, single point]"
23,Cc1csc(NC(=O)C2=NN(c3ccccc3)C(=O)CC2)n1,inactive
24,N#Cc1cc(-c2ccccc2)oc1NC(=O)c1ccccc1,"inconclusive [inhibitor, partial curve]"

row,Structure (SMILES),Potency
1,Cc1ccc(/C=N/n2cnc3sc4c(c3c2=O)CCCC4)o1,"inconclusive [inhibitor, single point]"
2,CCOC(=O)N1CCC(NC(=O)c2ccc3c(c2)N=C(C)c2ccccc2S3)CC1,"inconclusive [inhibitor, partial curve]"
3,COc1ccc(C)cc1NC(=O)C(c1ccccc1)N1CCN(CC(=O)N2CCCC2)CC1 (stereo unspecified),"inconclusive [inhibitor, single point]"
4,O=C(Nc1nc(-c2cc(Cl)sc2Cl)cs1)c1ccc(Br)s1,"inconclusive [inhibitor, full curve]"
5,CCOc1cc(/C=N/Nc2nc(-c3cccs3)c(NC(C)=O)s2)ccc1O,"inconclusive [inhibitor, single point]"
6,C#CCOc1ccccc1/C=N/NC(=O)c1ccccc1OCc1ccccc1,"inconclusive [inhibitor, full curve]"
7,CC1=C(C)CS(=O)N(S(=O)(=O)c2ccc(Cl)cc2)C1 (stereo unspecified),"inconclusive [inhibitor, single point]"
8,CC(C(=O)Nc1ccc2[nH]c(=O)[nH]c2c1)N1CCN(Cc2ccc3c(c2)OCO3)CC1 (stereo unspecified),inactive
9,COc1ccc(NC(=O)CSc2n[nH]c(-c3ccccn3)n2)cc1,"inconclusive [inhibitor, single point]"
10,O=C(NCc1ccco1)/C(=C/c1ccc(C(F)(F)F)cc1)c1nc2ccccc2[nH]1,"inconclusive [inhibitor, partial curve]"
11,O=C(C1CC1)N1CCc2cc(Br)cc(S(=O)(=O)NCc3ccco3)c21,inactive
12,CC(Oc1cc(-c2ccccc2)cc2ccccc12)C(=O)N1CCOCC1 (stereo unspecified),"inconclusive [inhibitor, single point]"
13,CCCNC(=S)Nc1ccc(Oc2ccccc2)cc1,"inconclusive [inhibitor, partial curve, poor fit]"
14,O=C(NCc1ccco1)C(=O)c1c[nH]c2ccccc12,inactive
15,CN(C(=O)COC(=O)CN1C(=O)C2CC=CCC2C1=O)c1ccccc1 (stereo unspecified),inactive
16,Nc1cc(S(=O)(=O)N2CCCCC2)ccc1Oc1ccccc1,"inconclusive [inhibitor, single point]"
17,COc1ccc(OC)c(-c2cc(C(=O)Nc3ccccc3C(N)=O)c3ccccc3n2)c1,active: 10 µM
18,Cc1ccccc1-n1c(-c2ccco2)nc2ccccc2c1=O,"inconclusive [inhibitor, single point]"
19,COc1ccc(Cl)cc1NC(=O)NCC1CCN(Cc2ccccc2F)CC1,"inconclusive [inhibitor, single point]"
20,CCCCOc1ccc(-c2c(C(=O)Nc3ccccc3)c(C)[nH]c(=S)c2C#N)cc1,"inconclusive [inhibitor, full curve, poor fit]"
21,Cc1ccc(SC[C@H](Cc2ccccc2)N2CC[C@@H](C)CCC2=O)cc1,"inconclusive [inhibitor, single point]"
22,CCCN(CCC)C(=O)c1ccc2nc(-c3ccc(OC)c(OC)c3)c(-c3ccc(OC)c(OC)c3)nc2c1,"inconclusive [inhibitor, single point]"
23,COc1cc(OC)c(NC(=S)Nc2cccc(C(C)=O)c2)cc1Cl,"inconclusive [inhibitor, partial curve, poor fit]"
